{"source": "PubChem BioAssay AID485294", "about": "(National Center for Advancing Translational Sciences (NCATS), 2010)", "note": "Out of some 370,000 compounds screened, about 150 (0.041%) were called active. Inconclusive results, whose numbers are uncertain, are shown with a selection of clear calls. The call rests on the fitted dose curve; in most records, active means well fitted inhibition curve with a large enough effect; inconclusive means small, poorly fitted or top-dose-only effect; inactive means flat fitted curve, though single readings scatter. Potencies of inconclusive entries are left out as doubtful fits. Potency means the concentration at half of the fitted maximal effect; tags describe the fitted curve by direction and shape."}
{"target": "Beta-lactamase (Escherichia coli (strain K12)) (UniProt P00811)", "sequence (P00811 whole entry, looked up)": "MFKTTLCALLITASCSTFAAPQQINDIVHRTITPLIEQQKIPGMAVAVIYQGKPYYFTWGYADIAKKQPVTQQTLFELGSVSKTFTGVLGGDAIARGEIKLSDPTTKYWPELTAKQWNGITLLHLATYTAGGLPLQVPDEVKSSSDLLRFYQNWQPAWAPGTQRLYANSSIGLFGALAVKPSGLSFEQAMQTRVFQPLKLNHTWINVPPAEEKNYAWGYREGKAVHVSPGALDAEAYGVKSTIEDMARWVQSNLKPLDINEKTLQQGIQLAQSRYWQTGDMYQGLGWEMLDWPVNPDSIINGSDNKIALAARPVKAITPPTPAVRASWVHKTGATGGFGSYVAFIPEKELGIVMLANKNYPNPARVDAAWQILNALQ", "experiment": "qHTS Inhibitors of AmpC Beta-Lactamase (assay with detergent); further: nearly all actives have a fitted effect of over 25% in size;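 on activity change, negative = inhibition: 0% = no-compound wells and -100% = no-enzyme wells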", "settings": "AmpC hydrolysis of nitrocefin, absorbance 480 nm, 0.01% Triton; activity change, negative = inhibition: at 114 µM (top of the series)", "method_in_brief": "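AmpC (5.3 nM in the dispensed reagent) in 20 mM phosphate pH 7.0 with 0.01% (detergent screen) or 0.0001% Triton X-100 was preincubated with compounds for 15 min at room temperature. Nitrocefin was then added from an 800 uM solution, and hydrolysis was followed at 480 nm.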"}
{"smiles": "CCOC(=O)Cc1c(C)nc2c(-c3ccc(Cl)cc3)c[nH]n2c1=O", "Potency": "inconclusive [inhibitor, full curve, poor fit]"}
{"smiles": "O=S(=O)(Nc1nc2ccccc2nc1Cl)c1ccccc1C(F)(F)F", "Potency": "inconclusive [inhibitor, partial curve, poor fit]"}
{"smiles": "CCCOc1ccc(/C=N/Nc2ccc(C(=O)O)cc2)c(OCCC)c1", "activity change, negative = inhibition": "inactive: -1.06%"}
{"smiles": "CC(=O)c1ccc(NC(=O)NC2CCCCCCC2)cc1", "activity change, negative = inhibition": "inactive: -5.84%"}
{"smiles": "O=C(c1cc2cc(C(F)(F)F)ccc2s1)N1CCOCC1", "Potency": "inconclusive [inhibitor, full curve, poor fit]"}
{"smiles": "CCC(=O)Nc1ccc(Cl)c(-c2nc3ncccc3o2)c1", "Potency": "inconclusive [inhibitor, partial curve, poor fit]"}
{"smiles": "COc1ccc(CCNC(=O)C(=O)NCCC2CCCCN2S(=O)(=O)c2cccs2)cc1", "note": "(configuration not stated)", "activity change, negative = inhibition": "inactive: -3.7%"}
{"smiles": "CCN1C(=O)c2cccc3c(S(=O)(=O)Nc4c(C)n(C)n(-c5ccccc5)c4=O)ccc1c23", "Potency": "inconclusive [inhibitor, full curve]"}
{"smiles": "Cc1nc(CC(=O)N2CCN(S(=O)(=O)c3ccccc3C#N)CC2)cs1", "Potency": "inconclusive [inhibitor, full curve]"}
{"smiles": "CC(=O)Nc1ccc(NC(=O)C(C)OC(=O)CNC(=O)c2cccs2)cc1", "note": "(configuration not stated)", "Potency": "inconclusive [inhibitor, partial curve]"}
{"smiles": "CCc1c(C)nc(Nc2nc(C)c3ccc(OC)cc3n2)[nH]c1=O", "activity change, negative = inhibition": "inactive: -4.79%"}
{"smiles": "CCCCCC(=O)Nc1nc(C)c(-c2csc(Nc3ccccc3OCC)n2)s1", "activity change, negative = inhibition": "inactive: 4.6%"}
{"smiles": "CC(NC(=O)CCc1nnc(CCCc2ccccc2)o1)c1ccccc1", "note": "(configuration not stated)", "activity change, negative = inhibition": "inactive: -5.18%"}
{"smiles": "CN1CCN(c2cc(N3CCCC3)c([N+](=O)[O-])cc2F)CC1", "activity change, negative = inhibition": "inactive: 5.46%"}
{"smiles": "CC(C)Cn1c(=O)c2ccccc2n2c(CCC(=O)O)nnc12", "Potency": "inconclusive [inhibitor, full curve, poor fit]"}
{"smiles": "O=C(NC1CCCCCC1)c1cc(S(=O)(=O)N2CCC3(CC2)OCCO3)ccc1F", "Potency": "inconclusive [inhibitor, full curve, poor fit]"}
{"smiles": "O=c1[nH]c(SCCN2CCOCC2)nc(O)c1-c1ccccc1", "activity change, negative = inhibition": "inactive: -4.08%"}
{"smiles": "CCc1cccc2c(-c3ccccc3)nc(SCC(=O)Nc3ccc(OC)cc3)nc12", "Potency": "inconclusive [inhibitor, partial curve, poor fit]"}
{"smiles": "CCC(=O)Nc1nc2ccccc2n1CCN(CC)CC", "Potency": "inconclusive [inhibitor, full curve]"}
{"smiles": "C[N+](C)(C)CC(=O)O", "Potency": "inconclusive [inhibitor, full curve, poor fit]"}
{"smiles": "CC(=O)N1CCN(C(=O)COc2ccccc2C(=O)Nc2ccccc2)CC1", "Potency": "inconclusive [inhibitor, single point]"}
{"smiles": "O=C(CN1CCCC1)N1CCCC(c2ccc(F)cc2)c2ccc(F)cc21", "note": "(configuration not stated)", "Potency": "inconclusive [inhibitor, full curve, poor fit]"}
{"smiles": "O=C(N/N=C/c1ccc(Cl)cc1Cl)c1ccc(-n2cnnn2)cc1", "Potency": "inconclusive [inhibitor, full curve]"}
{"smiles": "Cc1ccc(S(=O)(=O)N(C)CC(=O)Nc2cccnc2)cc1", "Potency": "inconclusive [inhibitor, full curve, poor fit]"}
{"smiles": "CCOC(=O)C1CCN(CC(=O)Nc2c(C(=O)OC)[nH]c3ccc(Cl)cc23)CC1", "Potency": "inconclusive [inhibitor, partial curve]"}
{"smiles": "OC(CN1CCN(c2cccc(C(F)(F)F)c2)CC1)c1c[nH]c2ccccc12", "note": "(configuration not stated)", "Potency": "inconclusive [inhibitor, full curve]"}
{"smiles": "N#Cc1ccccc1Cn1c(SCC(=O)NCc2ccccc2)nc2ccccc21", "activity change, negative = inhibition": "inactive: 16.2%"}
{"smiles": "CSC(=S)N/N=C/c1ccc(N(C)C)cc1", "Potency": "inconclusive [inhibitor, full curve, poor fit]"}
{"smiles": "CCOc1ccccc1N(CC)C(=O)c1ccc2c(=O)n3c(nc2c1)CCCCC3", "Potency": "inconclusive [inhibitor, full curve, poor fit]"}
{"smiles": "COCCN1C(=O)C(=O)/C(=C(/O)c2ccc(C)cc2)C1c1ccccn1", "note": "(configuration not stated)", "activity change, negative = inhibition": "inactive: -3.42%"}
{"smiles": "CCCCOc1ccc(C(=O)OC2CC(C)N(C)CC2C)cc1", "note": "(configuration not stated)", "Potency": "inconclusive [inhibitor, partial curve]"}
{"smiles": "O=C(/C(Cl)=C/Nc1ccc(Br)cn1)C(F)(F)F", "Potency": "inconclusive [inhibitor, full curve, poor fit]"}
{"smiles": "COc1ccc(NC(=O)CSc2nc(C)cc(C(F)(F)F)n2)cc1", "Potency": "inconclusive [inhibitor, full curve, poor fit]"}
{"smiles": "CCOc1ccccc1N(C)S(=O)(=O)c1ccc2[nH]cc(C(=O)N(CCOC)CCOC)c(=O)c2c1", "Potency": "inconclusive [inhibitor, full curve, poor fit]"}
{"smiles": "COC(=O)c1ccc2c(c1)sc(=NC(=O)CCS(=O)(=O)c1ccccc1)n2C", "Potency": "inconclusive [inhibitor, full curve]"}
{"smiles": "O=C(Nc1ccc(N2CCN(C(=O)c3ccco3)CC2)c(Cl)c1)c1cccs1", "activity change, negative = inhibition": "inactive: 1.94%"}
{"smiles": "O=C(COC(=O)c1cc(-c2ccco2)nc2ccccc12)NCc1ccc2c(c1)OCO2", "Potency": "inconclusive [inhibitor, full curve]"}
{"smiles": "CSc1nc2nc3c(c(=O)n2[nH]1)CCC3", "Potency": "inconclusive [inhibitor, full curve, poor fit]"}
{"smiles": "Cc1csc(NC(=O)C(CC(C)C)NS(=O)(=O)c2ccc3c(c2)oc(=O)n3C)n1", "note": "(configuration not stated)", "Potency": "inconclusive [inhibitor, full curve, poor fit]"}
{"smiles": "CC(C)(C)CN1CCC(n2nccc2NC(=O)c2ccccc2Cl)CC1", "Potency": "inconclusive [inhibitor, partial curve, poor fit]"}
{"smiles": "CC(C)NS(=O)(=O)c1cc(C(=O)O)ccc1Cl", "Potency": "inconclusive [inhibitor, partial curve]"}
{"smiles": "O=C(Cn1[nH]c(=O)c2ccccc2c1=O)Nc1cccc(-c2nnc3n2CCCCC3)c1", "Potency": "inconclusive [inhibitor, partial curve, poor fit]"}
